What all share (assay): NCI-60 one-dose screen, 48 h (100 = growth as untreated, 0 = no growth, -100 = all killed)
One test has as its system MDA-MB-231 breast. The following applies: 2.5 mM; runs of 2000.
In a further test the test system is RXF 393 renal. The following applies: 2.5 mM.
Another test concerns SF-268 CNS. The following applies: 2.5 mM.

Some compounds were tested as several samples or in several runs, with calls that do not always agree.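 Method: cells in 96-well plates; compound added at one concentration; 48 h incubation; percent growth measured; values under 10 scored active.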 For part of its entries the source gives two or more results. They are shown here; other results are not. An entry can have further records. The screen tested this drug many times, at the concentration stated with the values; each value is one run. Brackets with × count equal records among those shown.

Turning to `O=c1[nH]cc(F)c(=O)[nH]1`, the growth result in the test with MDA-MB-231 breast is “active: 0.0747, 1.34, 3.42, -25.4%”; with RXF 393 renal (runs of 1991), “active: -47.2, -53.1, -48.7, 8.4, -43.3, -6.17, -54.5, -38.6, 6.87, -39.7, -35.7, -22.5, -48.9, -26.8, -39.3, -54.3, -45.8, -42.1%”; in the test on RXF 393 renal (runs of 1992), “active: -15.3, -44.4 (2×), -18, -47.4, -38.4, -39.1, -10.5, -12, -39.3, -26.6 (2×), -58.9, -54.5 (2×), -36.8, -71.5, -50.9, -0.616, -43.1, -37.4, -15, -45, -45.8, -19.8, -41.4, -21, 1.1, -72.1, -13.7, -52.4, -30.1, -79.2, -78.5, -11.6, -24.9, -10.2, -41.8, -36.5, -21.8, -39.9, -22.7, -17.1, -56.6, -62.9, -73.7, -76, -55.7, -50.2, -62.6, -35.2, -61.2, -52.8, -57, -70.3, -68.4, -34.1, -22, -16.6, -57.2, -44.2, -27.3, -56.4, -55.5, -29.2, -55.6 (2×), -31.4, -60.6, -61.9, -78.3, -68.1 (2×), -42, -38, -64.2 (2×), -4.01, -32.4, -65.2, -34.2, -68.7, -9.65, -34.7, -33.7, -12.4, -82.5, -64.4, -2.97% and inactive: 29.2, 17.8, 87.9, 33.1, 47.8%”; in the test on RXF 393 renal (runs of 1993), “active: 4.75, -58.2, -30.8, 4.9, -41.4, -31.2, -64.9, -43.6, -65, -52.2, -26.2, 1.08, -47.8, -21.6, -33.8 (2×), -45.7, -2.95, -19.9, -53.8, -41.8, -23.2, -9.06, -55.5, -58.8, -42.2, -43.2, -37.1, -25.4, -74.3, -21, -40.9, -13.4, -13.9, -1.58% and inactive: 30.2, 13.6, 50.1, 83.9, 98.8, 17%”; with RXF 393 renal (runs of 1994), “active: -29, -11.6, -16.2, 4.28, -48.7, -23.2, -6.72, -30.4, -43, -22.8, -22.6, -45.7, -17.5, -12.1, -29.3, -0.101, -43.7, -53, -8.96, -52.9, -49.4% and inactive: 16.7, 24.4, 17.4, 36.4%”; with RXF 393 renal (runs of 1995), “active: 2.15, -82.3, -59.1, -2.84, -74.9, -24.3, -67.3, -33.2, -55.3, -59.2, -79.7, -14.1, -82.6, -21.5, -73.1, -35 (2×), -15.5, -13.2, -29.8, -36.3, -11.2, -18.9, -33.4, -57.1, -40.3, -9.47, -65.5, -42.2% and inactive: 37.4, 20.7, 13.1, 14.3, 16.7, 50.7%”. Besides, the growth result with RXF 393 renal (runs of 1996) was “active: -11.4, -19, -75.1, -34.9, -9.09, -33.6, -6.68, 5.88, 9.28, -59.4, -27.7, -14.2, -69.2, -45.8, 0, -16.1, -67, 7.3, -5.75, -18.7, -35.9 (2×), -18.8, -25, -23.6, 8.61, -3.33, -10.6, -52, -44.5, -41.5, -7.59, -23.5 (2×), -21.1, -17.5, -48.8, -25.6, -23.4, -11.2, -40.9, -35.6 (2×), -67.7, -8.83, -32, -27.5% and inactive: 20.2, 58.1, 25, 15.8, 18.7, 37.1, 38.7, 35.8%”; in the test with RXF 393 renal (runs of 1997) it was “active: -13.1, -3.94, -44.1, -13, -23, -46.2, -8.03, 1.37, -11.2, -23.7, -35.3, -16.9, -45.6, -19.2, -57, -18.1, -39.4, -38.7, -19.6, -48.1, -71.5, 7.44, 4.84, -14.7, -17.5, -12.5, -12.7, -8.22, 1.62, -60.8, -41.5, -1.43, -29.7, -42.2% and inactive: 34.6, 15.4, 65, 14.8, 65.1%”; in the test with RXF 393 renal (runs of 1998) it was “active: -5.75, -35.9, -3.4, -17.2, -21.1, -4.54, -26.5, -25.2, -3.44, -43.3, -43, -47.7, -22.8, -43.2, -26.3, -36.4, -42.6, -12.9, -57.6, -39.7% and inactive: 11.4%, 16%”; in the test with RXF 393 renal (runs of 1999), “inactive: 89.3%, 74.2% and active: -19.8, -57.7, -63.8, -46.1, -21.5, -27.3, -6.12, -22.1, 1.85, -41.7, 6.77, -45, -58.4, -44.3, 1.66%”; in the test with RXF 393 renal (runs of 2000), “active: 0.963, -51.8, -1.94, 0.0266%”; in the test with SF-268 CNS (runs of 1991), “inactive: 39.5, 41.4, 35.1, 38.5, 32.3, 30.9, 12.1, 38.6, 35.6, 36.5, 24.8, 30, 16.7, 27.1, 33.6, 28.5, 27.4, 15.9% and active: 3.12%, -94.1%”. Besides, the growth result in the test on SF-268 CNS (runs of 1992) is “inactive: 34.8 (2×), 33.4, 27.7 (2×), 30.9, 23.8, 13.1, 20.4 (2×), 18.4 (2×), 35.2, 27.8, 31, 17.5, 25.9, 24.5 (2×), 23.6, 20.9 (2×), 22.9, 51.3, 24.3, 38.6 (2×), 31.4 (2×), 37.6 (2×), 34.6, 40.5, 25, 39.8, 19.9, 22.8, 22.4, 39.3, 40.4, 42.8, 40.1 (2×), 45.4, 36.5, 24 (2×), 23.5, 34.9 (2×), 29.1, 26.1, 41.4, 59.9, 102, 43.1, 37.8, 37.7, 41.3, 50.9, 53.6, 16.1, 18.3, 24.9, 37.2, 34.1, 19.4, 37.3, 48.9, 39.2, 32, 53.1, 29.9, 29.3, 26.8 (2×), 24.4, 21.9, 20.2, 48, 43.5, 37.9, 28, 28.6, 34.3, 26.2, 22.2, 33.7, 17.8, 44.1, 30.7, 27.3 (2×), 36.1, 22.5 (2×), 22.3, 16.6, 25.3, 63.8, 15.6, 37.5, 31.8, 45.9, 12.3, 42.5, 36.3, 28.4, 31.6, 16, 63.7, 19.2, 31.2, 42.3% and active: 8.47, -1.03, 3.98, 6.74, 4.61, 2.33, 2.31, -1.49%”; in the test with SF-268 CNS (runs of 1993), “inactive: 23.6, 45.5, 46.8, 38.6 (2×), 34, 17.2, 43.1, 30.7, 24.4, 30, 45.9, 34.4 (2×), 11.9, 33.2, 20.5, 27.4, 33, 31.8, 31.4, 26.5, 29.6, 32.5, 31.9, 80, 30.6, 20.8, 34.7, 27.8, 14.1, 36.5, 38.4, 23.7, 39.2, 26.6, 82.2, 44.5, 91.8, 19.2, 43.8, 17.6, 36.8, 24.7, 31.5, 37.1, 10.2% and active: -20.9%”; in the test on SF-268 CNS (runs of 1994), “inactive: 24.4, 40.2, 40.6 (2×), 21.5, 36.6, 30.4 (2×), 24.3 (2×), 45.2, 38.9, 35.9, 39.5, 26.5, 20, 42.5, 47.6, 34.4, 36.7, 27.6, 37.4, 32.3, 21.8, 44.3, 25.4, 33.8, 26.9, 22.2, 28.7, 43.8% and active: -62.7%, 9.01%”.

Source of the values: PubChem BioAssay (NCI).
